# In paper PMC4336329 (PLoS ONE, 2015):
# The whole screen tested about 310,000 compounds, of which about 2,200 (0.71%) showed an effect of 50% or more. Effects have a minus sign here. The list shows a part of the results.
# Target: human ether-à-go-go-related gene (hERG) potassium channel (human, UniProt Q12809)
# Assay: primary screen, population patch clamp on CHO cells stably expressing hERG
# Chain of human ether-à-go-go-related gene (hERG) potassium channel (Q12809 whole entry, looked up): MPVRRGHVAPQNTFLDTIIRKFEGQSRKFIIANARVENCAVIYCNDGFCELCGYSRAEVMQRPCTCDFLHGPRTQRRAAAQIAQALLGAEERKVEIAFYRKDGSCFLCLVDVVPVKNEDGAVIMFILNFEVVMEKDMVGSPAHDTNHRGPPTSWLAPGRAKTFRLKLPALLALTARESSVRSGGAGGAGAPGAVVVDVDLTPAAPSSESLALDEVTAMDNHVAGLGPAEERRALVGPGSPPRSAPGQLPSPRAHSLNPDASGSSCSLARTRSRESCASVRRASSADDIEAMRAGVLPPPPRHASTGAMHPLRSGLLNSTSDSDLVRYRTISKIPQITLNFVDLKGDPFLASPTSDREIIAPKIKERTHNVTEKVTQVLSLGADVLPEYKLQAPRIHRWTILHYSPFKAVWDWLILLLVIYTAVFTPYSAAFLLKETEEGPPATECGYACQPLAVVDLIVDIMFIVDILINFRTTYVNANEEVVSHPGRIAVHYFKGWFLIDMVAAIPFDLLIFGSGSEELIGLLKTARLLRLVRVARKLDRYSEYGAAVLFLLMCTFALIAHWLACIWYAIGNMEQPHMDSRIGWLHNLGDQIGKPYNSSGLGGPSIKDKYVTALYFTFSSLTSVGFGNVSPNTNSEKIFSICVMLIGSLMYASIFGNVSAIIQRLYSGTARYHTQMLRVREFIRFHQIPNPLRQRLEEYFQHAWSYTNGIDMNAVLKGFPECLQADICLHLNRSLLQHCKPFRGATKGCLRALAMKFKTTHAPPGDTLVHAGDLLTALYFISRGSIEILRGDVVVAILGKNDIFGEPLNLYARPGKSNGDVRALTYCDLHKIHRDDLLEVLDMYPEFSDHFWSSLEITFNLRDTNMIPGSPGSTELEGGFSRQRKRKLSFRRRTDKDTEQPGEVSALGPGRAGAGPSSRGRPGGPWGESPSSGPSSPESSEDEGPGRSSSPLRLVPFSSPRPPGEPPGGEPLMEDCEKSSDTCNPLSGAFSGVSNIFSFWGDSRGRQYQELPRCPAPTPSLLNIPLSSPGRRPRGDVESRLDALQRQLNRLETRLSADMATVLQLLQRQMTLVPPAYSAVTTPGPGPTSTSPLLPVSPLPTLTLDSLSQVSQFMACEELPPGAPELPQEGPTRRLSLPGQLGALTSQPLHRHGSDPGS
row,Compound,"hERG current change (%, negative = inhibition) at 1uM [%]"
1,CCCCC(=O)Nc1ccc(C2C(=O)c3ccccc3C2=O)cc1,10.9
2,C=CCSc1nnc2nc3c(nn12)c1cc(C)ccc1n3CC=C,-33.5
3,CCOc1ccc(C(=O)NC(=S)NCc2cccnc2)cc1[N+](=O)[O-],10
4,COc1cc(NC(N)=S)c(OC)cc1Cl,11.9
5,CCOc1ccc(-c2nc(-c3ccccc3C)no2)cc1,10.9
6,CCCCC(=O)Nc1nnc(CCc2ccccc2)s1,5.45
7,CCCCCCOc1ccc(NC(=O)CC2C(=O)N(CC)C(=S)N2Cc2ccco2)cc1 (centres unmarked),14.2
8,Cc1cc(OC(C)C(=O)NCC(O)c2ccccc2)c2c3c(c(=O)oc2c1)CCC3 (centres unmarked),4.63
9,COc1cccc(/C=N/NC(=O)c2ccc(OCc3cccc(Br)c3)cc2)c1,6.59
10,O=C(Cc1ccccc1)Nc1nnc(-c2ccco2)s1,7.55
11,Cc1cc(C)c2c(N)c(C(=O)c3ccc(Cl)c(Cl)c3)sc2n1,12.8
12,CCOc1ccccc1-c1nc2c(s1)CCc1onc(-c3ccc(OC)cc3)c1-2,9.28
13,CC(C)(C)C(=O)[C@H]1[C@H](c2ccccc2)[C@@]2(N=C(c3ccccc3)OC2=O)C2c3ccccc3C=NN21 (some centres unmarked),16.8
14,CC(C)(C)C(=O)CSc1ncnc2sc3c(c12)CCC3,1.18
15,C#Cc1ccc(CN2CCN(CCCc3ccccc3)C(CCO)C2)cc1 (centres unmarked),-14.1
16,CC1CN(C(=O)C(C)N2C(=O)c3ccccc3C2=O)CC(C)O1 (centres unmarked),-2.66
17,COc1ccccc1OP(=O)(Nc1cccnc1)Oc1ccccc1OC,18
18,C=CCOc1ccc(/C(O)=C2\C(=O)C(=O)N(CCOC)C2c2cccnc2)cc1 (centres unmarked),8.47
19,Cc1ccc(N2C(N)=C(C#N)C(c3cc(CN4CCOCC4)cs3)C3=C2CC(C)(C)CC3=O)cc1 (centres unmarked),12
20,O=C(Oc1c(Br)cc(Br)c2cccnc12)N1CCCCC1,-6.26
21,CC1CCC(C(C)C)C(OC(=O)C[n+]2cc(-c3ccc(Cl)cc3)n3c2CCC3)C1.[Cl-] (centres unmarked),-25.6
22,CC(=O)c1c[nH]c(C(=O)NCc2ccccc2Cl)c1,15.6

row,Compound,"hERG current change (%, negative = inhibition) at 1uM [%]"
1,CC1CCCCC1NC(=S)Nc1cccc(S(=O)(=O)N(C)C)c1 (centres unmarked),18.2
2,CN(C)S(=O)(=O)c1ccc(C(=O)NCCSc2ccccc2)cc1,-1.53
3,COc1ccc(/C=N/Nc2nnc(Cc3ccccc3)c(=O)[nH]2)cc1OC,-14.2
4,N#Cc1ccc(COC(=O)CSc2nnc(C3CCCCC3)n2N)cc1,-12.3
5,CCC1Sc2ccc(S(=O)(=O)Nc3ccc(OC)c(OC)c3)cc2NC1=O (centres unmarked),10.4
6,C=CCNc1nc(C(=O)OCC)nc2ccccc12,14.3
7,Cc1ccc(N(C(=O)c2csnn2)C(C(=O)NC2CCCCC2)c2cccnc2)c(C)c1 (centres unmarked),7.11
8,CC1CCCCC12NC(=O)N(CC(=O)NCc1ccc3c(c1)OCO3)C2=O (centres unmarked),16
9,CC1Cc2cc(S(=O)(=O)N3CCC(C(=O)N4CCCCC4)CC3)ccc2N1C(=O)C1CC1 (centres unmarked),-2.44
10,COc1cc(C(=O)Nc2ccc(N3CCCS3(=O)=O)cc2)c([N+](=O)[O-])cc1OC,4.34
11,O=C(NCCc1nc(-c2ccc(F)cc2)no1)c1ccc(F)cc1,1.12
12,O=[N+]([O-])c1cccc2ncccc12,11.6
13,C=CC(C)Sc1nc2c(c(=O)n(C)c(=O)n2C)n1Cc1ccccc1Cl (centres unmarked),6.25
14,COC(=O)CSc1nc2c(cnn2-c2ccc(F)cc2)c(=O)[nH]1,20.1
15,CC(C)(C)OC(=O)N[C@H](/C=C/c1ccccc1)C(=O)OC(C)(C)C,4.95
16,O=C(O)CSc1nc(-c2ccccc2)cc(=O)[nH]1,6.67
17,Cc1cc(=O)[nH]c(SCC(=O)N2c3ccccc3CC2C)n1 (centres unmarked),12.4
18,CCOC(=O)C1=C(COC(=O)CCc2ccc(CC)cc2)NC(=O)NC1C (centres unmarked),5.55
19,NC(=O)c1nn(-c2ccccc2)nc1NC(=O)CN1CCOCC1,1.71
20,Cc1cccc2c1cnn2C(=O)CCC(=O)NCC(C)c1ccccc1 (centres unmarked),13.5
21,CN(C)/C=C(/C(=O)c1ccc(Cl)cc1)S(=O)(=O)c1ccccc1,7.81
22,CC(=O)NC(Cc1cc(C)ccc1C)C(=O)N1CCN(C(=O)c2ccc(Br)cc2)CC1 (centres unmarked),-11
